24 molecules from the supplement of paper PMC4604168 (melanoma cell lines) can be followed below.

The other results are listed elsewhere or left out. Many values rest on one well or one pass, so single values are uncertain.

Common to all, as to test: cell count relative to DMSO control; melanoma cells; higher = more viable cells
Common to all, as to conditions: library dose: low library concentration; 72 h

In assay [1] the test system is WM115.
Assay [2] concerns WM1716.
For assay [3], the system named is WM1745.
In assay [4] the test system is WM3526.
For assay [5], the system named is WM3619.
Assay [6] relates to WM451Lu.
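Also: cell number obtained by counting DAPI-stained nuclei in high-throughput microscope images with image analysis software, screen run in 1,536-well plates.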

Consider `Cn1cc(C2=C(c3cn(C4CCN(Cc5ccccn5)CC4)c4ccccc34)C(=O)NC2=O)c2ccccc21` [Enzastaurin] + O=c1cc(-c2cccc3c2Sc2ccccc2S3)oc(N2CCOCC2)c1 [KU55933] (first compound 0.8 µM, partner dose 1 µM), for which the cell count in assay [1] is 116%; in assay [2] it was 100%; in assay [3], 75.6%; in assay [4], 108%; in assay [5] it was 104%; in assay [6] it was 129%.
On to `Cn1cc(C2=C(c3cn(C4CCN(Cc5ccccn5)CC4)c4ccccc34)C(=O)NC2=O)c2ccccc21` [Enzastaurin] + OCCn1cc(-c2cnc3nnn(Cc4ccc5ncccc5c4)c3n2)cn1 [PF04217903] (first compound 0.8 µM, partner dose 1 µM), for which the cell count in assay [1] was found to be 112%; in assay [2] it was 98.3%; in assay [3] it was 93.1%; in assay [4] it was 116%; in assay [5] it was 123%; in assay [6], 113%.
With `Cn1cc(C2=C(c3cn(C4CCN(Cc5ccccn5)CC4)c4ccccc34)C(=O)NC2=O)c2ccccc21` [Enzastaurin] + O=C(Nc1cccc(Cl)c1)Nc1ncc(CCNc2ncnc3ccsc23)s1 [SNS314] (first compound 0.8 µM, partner dose 0.0008 µM), the cell count in assay [1] amounted to 94.1%; in assay [2], 104%; in assay [3], 90.3%; in assay [4], 99.7%; in assay [5], 109%; in assay [6] it was 100%.
For `N.N.[Cl][Pt][Cl]` [cisplatin] + NCC(=O)Nc1ccc(-n2nc(C(F)(F)F)cc2-c2ccc3c(ccc4ccccc43)c2)cc1 [OSU03012] (first compound 1.6 µM, partner dose 1 µM), the cell count in assay [1] came to 102%; in assay [2] it was 111%; in assay [3], 98%; in assay [4] it was 87.7%; in assay [5], 109%; in assay [6], 111%.
Take `Cn1cc(C2=C(c3cn(C4CCN(Cc5ccccn5)CC4)c4ccccc34)C(=O)NC2=O)c2ccccc21` [Enzastaurin] + COc1cc2c(Oc3ccc4[nH]c(C)cc4c3F)ncnc2cc1OCCCN1CCCC1 [cediranib] (first compound 0.8 µM, partner dose 0.4 µM): the cell count came to 109% in assay [1]; 86.2% in assay [2]; 79.8% in assay [3]; 105% in assay [4]; 102% in assay [5]; 138% in assay [6].
In the case of `N.N.[Cl][Pt][Cl]` [cisplatin] + O=C(Nc1ccccc1)c1cc([N+](=O)[O-])ccc1Cl [GW9662] (first compound 1.6 µM, partner dose 2 µM), the cell count in assay [1] worked out at 102%; in assay [2], 89.9%; in assay [3], 98%; in assay [4], 87.9%; in assay [5] it was 92.5%; in assay [6] it was 110%.
As to `C[C@]12O[C@H](C[C@]1(O)CO)n1c3ccccc3c3c4c(c5c6ccccc6n2c5c31)CNC4=O` [Lestaurtinib] + O=C(O)c1ccc2c(c1)nc(Nc1cccc(Cl)c1)c1ccncc12 [CX4945] (first compound 0.004 µM, partner dose 0.4 µM), the cell count in assay [1] was 104%; in assay [2] it was 104%; in assay [3], 93.4%; in assay [4], 82%; in assay [5], 98%; in assay [6], 88.6%.
As to `Cn1cc(C2=C(c3cn(C4CCN(Cc5ccccn5)CC4)c4ccccc34)C(=O)NC2=O)c2ccccc21` [Enzastaurin] + CO[C@H]1C[C@@H]2CC[C@@H](C)[C@@](O)(O2)C(=O)C(=O)N2CCCC[C@H]2C(=O)O[C@H]([C@H](C)C[C@@H]2CC[C@@H](OCCO)[C@H](OC)C2)CC(=O)[C@H](C)/C=C(\C)[C@@H](O)[C@@H](OC)C(=O)[C@H](C)C[C@H](C)/C=C/C=C/C=C/1C [everolimus] (first compound 0.8 µM, partner dose 0.02 µM), the cell count worked out at 88.1% in assay [1]; 94.6% in assay [2]; 88.5% in assay [3]; 80.1% in assay [4]; 75.7% in assay [5]; 93.1% in assay [6].
On to `Cn1cc(C2=C(c3cn(C4CCN(Cc5ccccn5)CC4)c4ccccc34)C(=O)NC2=O)c2ccccc21` [Enzastaurin] + C[As](C)SC[C@H](NC(=O)CC[C@H](N)C(=O)O)C(=O)NCC(=O)O [Darinaparsin] (first compound 0.8 µM, partner dose 0.4 µM), for which the cell count was 123% in assay [1]; 116% in assay [2]; 87.1% in assay [3]; 105% in assay [4]; 102% in assay [5]; 109% in assay [6].
Consider `C[C@]12O[C@H](C[C@]1(O)CO)n1c3ccccc3c3c4c(c5c6ccccc6n2c5c31)CNC4=O` [Lestaurtinib] + C/C(O)=C(\C#N)C(=O)Nc1cc(Br)ccc1Br [LFM-A13] (first compound 0.004 µM, partner dose 2 µM), for which the cell count in assay [1] worked out at 106%; in assay [2], 93.8%; in assay [3] it was 86.7%; in assay [4], 78.4%; in assay [5], 87.5%; in assay [6] it was 150%.
As for `N.N.[Cl][Pt][Cl]` [cisplatin] + CO[C@@H]1[C@H](N(C)C(=O)c2ccccc2)C[C@H]2O[C@]1(C)n1c3ccccc3c3c4c(c5c6ccccc6n2c5c31)C(=O)NC4 [Midostaurin] (first compound 1.6 µM, partner dose 0.08 µM), the cell count turned out to be 89.1% in assay [1]; 82.3% in assay [2]; 88% in assay [3]; 95.7% in assay [4]; 79.1% in assay [5]; 85.9% in assay [6].
In the case of `N.N.[Cl][Pt][Cl]` [cisplatin] + N#Cc1c(O)c2c(-c3ccc(-c4ccccc4O)cc3)csc2[nH]c1=O [A769662] (first compound 1.6 µM, partner dose 2 µM), the cell count was found to be 99% in assay [1]; 93.2% in assay [2]; 96.9% in assay [3]; 101% in assay [4]; 109% in assay [5]; 95.8% in assay [6].
`N.N.[Cl][Pt][Cl]` [cisplatin] + CC(=O)c1c(C)c2cnc(Nc3ccc(N4CCNCC4)cn3)nc2n(C2CCCC2)c1=O [palbociclib] (first compound 1.6 µM, partner dose 0.04 µM): the cell count in assay [1] turned out to be 95.2%; in assay [2], 88.1%; in assay [3] it was 103%; in assay [4] it was 84.3%; in assay [5], 87.5%; in assay [6] it was 83.4%.
Regarding `C[As](C)SC[C@H](NC(=O)CC[C@H](N)C(=O)O)C(=O)NCC(=O)O` [Darinaparsin] + CCc1ccc(CCOc2ccc(CC3SC(=O)NC3=O)cc2)nc1 [pioglitazone] (first compound 0.4 µM, partner dose 2 µM), the cell count amounted to 99.1% in assay [1]; 90.1% in assay [2]; 93.7% in assay [3]; 82.2% in assay [4]; 116% in assay [5]; 106% in assay [6].
With `C[C@]12O[C@H](C[C@]1(O)CO)n1c3ccccc3c3c4c(c5c6ccccc6n2c5c31)CNC4=O` [Lestaurtinib] + Oc1cc(-c2nc(-c3ccccc3)[nH]c2-c2ccncc2)ccc1Cl [L779450] (first compound 0.004 µM, partner dose 0.2 µM), the cell count in assay [1] was 79.7%; in assay [2] it was 125%; in assay [3], 97.7%; in assay [4] it was 49.1%; in assay [5], 110%; in assay [6], 90.6%.
With `Cn1cc(C2=C(c3cn(C4CCN(Cc5ccccn5)CC4)c4ccccc34)C(=O)NC2=O)c2ccccc21` [Enzastaurin] + Cc1nc(Nc2ncc(C(=O)Nc3c(C)cccc3Cl)s2)cc(N2CCN(CCO)CC2)n1 [dasatanib] (first compound 0.8 µM, partner dose 0.004 µM), the cell count in assay [1] came out at 89.7%; in assay [2] it was 91.2%; in assay [3], 69.3%; in assay [4] it was 126%; in assay [5], 77.1%; in assay [6], 95.6%.
`C[C@]12O[C@H](C[C@]1(O)CO)n1c3ccccc3c3c4c(c5c6ccccc6n2c5c31)CNC4=O` [Lestaurtinib] + CO[C@H]1C[C@@H]2CC[C@@H](C)[C@@](O)(O2)C(=O)C(=O)N2CCCC[C@H]2C(=O)O[C@H]([C@H](C)C[C@@H]2CC[C@@H](OCCO)[C@H](OC)C2)CC(=O)[C@H](C)/C=C(\C)[C@@H](O)[C@@H](OC)C(=O)[C@H](C)C[C@H](C)/C=C/C=C/C=C/1C [everolimus] (first compound 0.004 µM, partner dose 0.02 µM): the cell count came to 88.2% in assay [1]; 83.7% in assay [2]; 89.7% in assay [3]; 51.5% in assay [4]; 92.3% in assay [5]; 90.3% in assay [6].
Consider `N.N.[Cl][Pt][Cl]` [cisplatin] + O=C(Nc1cccc(Cl)c1)Nc1ncc(CCNc2ncnc3ccsc23)s1 [SNS314] (first compound 1.6 µM, partner dose 0.0008 µM), for which the cell count was 74.2% in assay [1]; 109% in assay [2]; 101% in assay [3]; 103% in assay [4]; 79.4% in assay [5]; 116% in assay [6].
In the case of `N.N.[Cl][Pt][Cl]` [cisplatin] + CC(C)(C)c1cnc(CSc2cnc(NC(=O)C3CCNCC3)s2)o1 [SNS-032] (first compound 1.6 µM, partner dose 0.01 µM), the cell count turned out to be 103% in assay [1]; 116% in assay [2]; 97.9% in assay [3]; 97.6% in assay [4]; 115% in assay [5]; 89.9% in assay [6].
`C[C@]12O[C@H](C[C@]1(O)CO)n1c3ccccc3c3c4c(c5c6ccccc6n2c5c31)CNC4=O` [Lestaurtinib] + COc1ccc(Cl)c(Nc2nc3ccccc3nc2NS(=O)(=O)c2cccc(NC(=O)C(C)(C)N)c2)c1 [XL147] (first compound 0.004 µM, partner dose 0.8 µM): the cell count was determined as 93.4% in assay [1]; 103% in assay [2]; 101% in assay [3]; 97% in assay [4]; 74.9% in assay [5]; 117% in assay [6].
For `Cn1cc(C2=C(c3cn(C4CCN(Cc5ccccn5)CC4)c4ccccc34)C(=O)NC2=O)c2ccccc21` [Enzastaurin] + Cn1nnc2c(C(N)=O)ncn2c1=O [temozolomide] (first compound 0.8 µM, partner dose 2 µM), the cell count in assay [1] worked out at 108%; in assay [2], 89.6%; in assay [3] it was 81%; in assay [4], 89.7%; in assay [5], 105%; in assay [6] it was 107%.
`C[As](C)SC[C@H](NC(=O)CC[C@H](N)C(=O)O)C(=O)NCC(=O)O` [Darinaparsin] + O=C(Oc1ccc([N+](=O)[O-])cc1)N1CCC(C(O)(c2ccc3c(c2)OCO3)c2ccc3c(c2)OCO3)CC1 [JZL184] (first compound 0.4 µM, partner dose 1 µM): the cell count in assay [1] came to 88.6%; in assay [2] it was 94.6%; in assay [3], 85.5%; in assay [4], 81.4%; in assay [5], 105%; in assay [6] it was 90.4%.
With `N.N.[Cl][Pt][Cl]` [cisplatin] + Cc1cc([N+](=O)[O-])ccc1NS(=O)(=O)c1cc(Cl)ccc1Cl [FH535] (first compound 1.6 µM, partner dose 1 µM), the cell count was 81.9% in assay [1]; 100% in assay [2]; 94.7% in assay [3]; 99.9% in assay [4]; 100% in assay [5]; 87.5% in assay [6].
As to `C[As](C)SC[C@H](NC(=O)CC[C@H](N)C(=O)O)C(=O)NCC(=O)O` [Darinaparsin] + C/C(O)=C(\C#N)C(=O)Nc1cc(Br)ccc1Br [LFM-A13] (first compound 0.4 µM, partner dose 2 µM), the cell count in assay [1] is 95.3%; in assay [2], 91.4%; in assay [3], 99%; in assay [4], 94.1%; in assay [5], 120%; in assay [6], 85.2%.
